# In paper PMC11094025:
# Protein sequences, listed by entry. Tags and fused reporters are not part of them. Lines headed by an entry give the natural chain unless they say otherwise; changes in a name come on top. Chains listed by the source or under a name are the forms on record and can include a tag or linker.
# UniProt O95292: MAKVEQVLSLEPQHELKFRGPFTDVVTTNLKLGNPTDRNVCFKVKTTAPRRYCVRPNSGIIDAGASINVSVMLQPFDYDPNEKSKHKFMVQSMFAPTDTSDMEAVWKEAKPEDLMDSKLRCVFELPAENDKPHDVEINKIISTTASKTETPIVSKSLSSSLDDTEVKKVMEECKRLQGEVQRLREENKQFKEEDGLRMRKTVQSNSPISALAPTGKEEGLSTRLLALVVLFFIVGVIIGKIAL
# GST-VAPB-MSP-K87D/M89D (O95292, form named): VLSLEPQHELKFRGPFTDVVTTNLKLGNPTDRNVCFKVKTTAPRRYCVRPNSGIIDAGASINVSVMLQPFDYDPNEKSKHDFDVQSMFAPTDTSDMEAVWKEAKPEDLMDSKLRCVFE
# UniProt Q9BXW6: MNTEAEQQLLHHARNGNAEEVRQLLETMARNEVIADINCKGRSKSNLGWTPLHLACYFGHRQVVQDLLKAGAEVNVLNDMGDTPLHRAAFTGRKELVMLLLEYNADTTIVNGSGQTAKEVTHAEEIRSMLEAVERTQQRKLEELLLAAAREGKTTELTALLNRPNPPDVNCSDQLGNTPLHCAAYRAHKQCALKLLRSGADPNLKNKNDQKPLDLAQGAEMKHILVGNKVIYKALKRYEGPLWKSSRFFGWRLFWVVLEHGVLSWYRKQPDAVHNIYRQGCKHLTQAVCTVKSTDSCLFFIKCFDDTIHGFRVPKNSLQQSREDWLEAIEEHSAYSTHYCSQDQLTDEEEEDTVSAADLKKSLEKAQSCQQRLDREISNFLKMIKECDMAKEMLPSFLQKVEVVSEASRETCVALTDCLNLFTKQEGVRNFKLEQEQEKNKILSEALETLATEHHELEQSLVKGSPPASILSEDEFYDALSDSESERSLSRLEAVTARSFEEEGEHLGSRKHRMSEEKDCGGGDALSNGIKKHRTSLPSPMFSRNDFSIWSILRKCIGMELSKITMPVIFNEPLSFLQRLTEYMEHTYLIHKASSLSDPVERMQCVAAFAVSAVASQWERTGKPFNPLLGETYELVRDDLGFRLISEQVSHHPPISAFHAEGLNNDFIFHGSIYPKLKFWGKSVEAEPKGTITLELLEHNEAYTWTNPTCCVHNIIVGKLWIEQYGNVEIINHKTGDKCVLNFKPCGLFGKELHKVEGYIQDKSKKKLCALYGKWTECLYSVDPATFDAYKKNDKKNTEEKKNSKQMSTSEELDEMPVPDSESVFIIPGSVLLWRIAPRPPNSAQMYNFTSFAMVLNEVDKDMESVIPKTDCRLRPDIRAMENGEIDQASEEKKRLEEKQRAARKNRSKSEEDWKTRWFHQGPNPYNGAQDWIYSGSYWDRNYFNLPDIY
# UniProt Q14739: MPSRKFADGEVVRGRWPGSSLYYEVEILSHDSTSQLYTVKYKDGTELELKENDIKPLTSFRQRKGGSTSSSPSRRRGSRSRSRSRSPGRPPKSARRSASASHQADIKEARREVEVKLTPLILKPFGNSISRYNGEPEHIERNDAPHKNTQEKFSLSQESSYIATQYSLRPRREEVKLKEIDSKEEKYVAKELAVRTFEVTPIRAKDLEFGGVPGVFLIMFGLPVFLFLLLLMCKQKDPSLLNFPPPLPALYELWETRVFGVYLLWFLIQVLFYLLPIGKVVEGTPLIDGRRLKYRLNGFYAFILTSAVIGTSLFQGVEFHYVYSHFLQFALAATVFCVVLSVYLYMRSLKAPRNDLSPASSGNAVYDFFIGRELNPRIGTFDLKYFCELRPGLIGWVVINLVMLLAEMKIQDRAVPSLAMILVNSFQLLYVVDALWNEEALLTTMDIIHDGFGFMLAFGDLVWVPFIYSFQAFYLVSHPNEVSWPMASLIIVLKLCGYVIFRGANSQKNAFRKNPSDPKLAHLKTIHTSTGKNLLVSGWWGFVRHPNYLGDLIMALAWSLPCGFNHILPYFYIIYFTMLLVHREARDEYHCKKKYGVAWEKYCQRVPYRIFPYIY
# These are yes or no findings as the source states them, for the method shown. For some of these results: In cells and extracts the contact can be indirect. Some binding calls cover weakened binding; strength is not graded here. For some of these results: Tags and fused reporters may be left off the sequences shown.
# B1: ACBD5 (acyl-CoA binding domain protein), endogenous (protein, UniProt Q5T8D3 1-534)
# chain: MFQFHAGSWESWCCCCLIPADRPWDRGQHWQLEMADTRSVHETRFEAAVKVIQSLPKNGSFQPTNEMMLKFYSFYKQATEGPCKLSRPGFWDPIGRYKWDAWSSLGDMTKEEAMIAYVEEMKKIIETMPMTEKVEELLRVIGPFYEIVEDKKSGRSSDITSVRLEKISKCLEDLGNVLTSTPNAKTVNGKAESSDSGAESEEEEAQEEVKGAEQSDNDKKMMKKSADHKNLEVIVTNGYDKDGFVQDIQNDIHASSSLNGRSTEEVKPIDENLGQTGKSAVCIHQDINDDHVEDVTGIQHLTSDSDSEVYCDSMEQFGQEESLDSFTSNNGPFQYYLGGHSSQPMENSGFREDIQVPPGNGNIGNMQVVAVEGKGEVKHGGEDGRNNSGAPHREKRGGETDEFSNVRRGRGHRMQHLSEGTKGRQVGSGGDGERWGSDRGSRGSLNEQIALVLMRLQEDMQNVLQRLQKLETLTALQAKSSTSTLQTAPQPTSQRPSWWPFEMSPGVLTFAIIWPFIAQWLVYLYYQRRRRKLN
# B2: OSBPL9, endogenous (protein, UniProt Q96SU4 1-736)
# chain: MASIMEGPLSKWTNVMKGWQYRWFVLDYNAGLLSYYTSKDKMMRGSRRGCVRLRGAVIGIDDEDDSTFTITVDQKTFHFQARDADEREKWIHALEETILRHTLQLQGLDSGFVPSVQDFDKKLTEADAYLQILIEQLKLFDDKLQNCKEDEQRKKIETLKETTNSMVESIKHCIVLLQIAKDQSNAEKHADGMISTINPVDAIYQPSPLEPVISTMPSQTVLPPEPVQLCKSEQRPSSLPVGPVLATLGHHQTPTPNSTGSGHSPPSSSLTSPSHVNLSPNTVPEFSYSSSEDEFYDADEFHQSGSSPKRLIDSSGSASVLTHSSSGNSLKRPDTTESLNSSLSNGTSDADLFDSHDDRDDDAEAGSVEEHKSVIMHLLSQVRLGMDLTKVVLPTFILERRSLLEMYADFFAHPDLFVSISDQKDPKDRMVQVVKWYLSAFHAGRKGSVAKKPYNPILGEIFQCHWTLPNDTEENTELVSEGPVPWVSKNSVTFVAEQVSHHPPISAFYAECFNKKIQFNAHIWTKSKFLGMSIGVHNIGQGCVSCLDYDEHYILTFPNGYGRSILTVPWVELGGECNINCSKTGYSANIIFHTKPFYGGKKHRITAEIFSPNDKKSFCSIEGEWNGVMYAKYATGENTVFVDTKKLPIIKKKVRKLEDQNEYESRSLWKDVTFNLKIRDIDAATEAKHRLEERQRAEARERKEKEIQWETRLFHEDGECWVYDEPLLKRLGAAKH
# Legend:
# [1] = target: GST-VAPB-MSP-K87D/M89D (UniProt O95292); assay: pull-down; GST proteins (200 pmol) on GST-Selector beads, 3 h with lysate of mitotic (DME) HeLa or HEK293T cells; Western blot; only the target purified
# [2] = target: GST-VAPB-MSP (wild-type MSP-domain of VAPB fused to a GST-tag) (UniProt O95292); assay: as above
# [3] = target: GST-VAPB-MSP (wild-type MSP-domain of VAPB fused to a GST-tag) (UniProt O95292); assay: condition: only lysate treated with λ-phosphatase (7 U/µl, 1 h at 30 °C); pull-down; GST proteins (200 pmol) on GST-Selector beads, 3 h with lysate of mitotic (DME) HeLa or HEK293T cells; Western blot; only the target purified
# [4] = target: GST-VAPB-MSP (wild-type MSP-domain of VAPB fused to a GST-tag) (UniProt O95292); assay: pull-down; GST proteins (200 pmol) on GST-Selector beads, 3 h with lysate of asynchronous HeLa cells; Western blot; only the target purified
# [5] = target: GST-VAPB-MSP (wild-type MSP-domain of VAPB fused to a GST-tag) (UniProt O95292); assay: condition: only lysate treated with λ-phosphatase (7 U/µl, 1 h at 30 °C); pull-down; GST proteins (200 pmol) on GST-Selector beads, 3 h with lysate of asynchronous HeLa cells; Western blot; only the target purified
# [6] = target: T1, His-ELYS(1018-1642)-MBP S1314D (human (HeLa cDNA)) (UniProt Q8WYP5); assay: pull-down; 100 pmol His-ELYS(1018-1642)-MBP on MBP-Selector beads, 300 pmol GST or GST-MSP-VAPB, 2 h at 4 °C, 50 mM Tris HCl pH 7.4, 150 mM NaCl, hemoglobin 1.25 mg/ml; Coomassie; both purified
# T1 sequence: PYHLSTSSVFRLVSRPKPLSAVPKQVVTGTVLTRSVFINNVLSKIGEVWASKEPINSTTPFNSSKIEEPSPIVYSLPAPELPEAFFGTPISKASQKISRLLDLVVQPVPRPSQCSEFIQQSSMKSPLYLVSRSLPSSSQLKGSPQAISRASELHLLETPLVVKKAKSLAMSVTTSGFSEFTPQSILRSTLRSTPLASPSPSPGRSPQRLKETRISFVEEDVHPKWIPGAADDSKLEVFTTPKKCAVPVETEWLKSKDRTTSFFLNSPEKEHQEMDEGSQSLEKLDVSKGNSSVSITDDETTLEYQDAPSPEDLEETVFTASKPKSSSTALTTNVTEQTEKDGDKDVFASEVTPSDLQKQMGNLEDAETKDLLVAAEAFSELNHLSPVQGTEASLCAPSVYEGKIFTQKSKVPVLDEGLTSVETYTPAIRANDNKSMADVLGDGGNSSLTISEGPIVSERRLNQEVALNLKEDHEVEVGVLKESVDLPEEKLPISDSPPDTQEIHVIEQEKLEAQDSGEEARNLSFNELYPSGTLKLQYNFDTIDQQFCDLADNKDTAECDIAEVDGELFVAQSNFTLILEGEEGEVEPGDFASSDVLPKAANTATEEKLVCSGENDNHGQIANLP
# [7] = target: T2, ORP1-peptide (amino acid residues 469-485) (UniProt Q9BXW6); assay: pull-down; 20 nmol biotinylated peptide on neutravidin agarose, 30 µg purified protein in 500 µl, 2 h at 4 °C, 50 mM Tris-HCl pH 7.4, 75 mM NaCl, 1 mM EDTA, 1% Triton X-100, 0.25 mM DTT; Coomassie; both purified
# T2 sequence (peptide, biotin at the N-terminus): SILSEDEFYDALSDSES
# [8] = target: T3, GFP-ELYS(1018-1642) S1314D (human (HeLa cDNA)) (UniProt Q8WYP5); assay: co-IP; GFP-ELYS(1018-1642) versions precipitated with GFP-Selector from lysates of mitotic (DME) stable HeLa Flp-In T-REx cells; blot for endogenous VAPB
# T3 sequence: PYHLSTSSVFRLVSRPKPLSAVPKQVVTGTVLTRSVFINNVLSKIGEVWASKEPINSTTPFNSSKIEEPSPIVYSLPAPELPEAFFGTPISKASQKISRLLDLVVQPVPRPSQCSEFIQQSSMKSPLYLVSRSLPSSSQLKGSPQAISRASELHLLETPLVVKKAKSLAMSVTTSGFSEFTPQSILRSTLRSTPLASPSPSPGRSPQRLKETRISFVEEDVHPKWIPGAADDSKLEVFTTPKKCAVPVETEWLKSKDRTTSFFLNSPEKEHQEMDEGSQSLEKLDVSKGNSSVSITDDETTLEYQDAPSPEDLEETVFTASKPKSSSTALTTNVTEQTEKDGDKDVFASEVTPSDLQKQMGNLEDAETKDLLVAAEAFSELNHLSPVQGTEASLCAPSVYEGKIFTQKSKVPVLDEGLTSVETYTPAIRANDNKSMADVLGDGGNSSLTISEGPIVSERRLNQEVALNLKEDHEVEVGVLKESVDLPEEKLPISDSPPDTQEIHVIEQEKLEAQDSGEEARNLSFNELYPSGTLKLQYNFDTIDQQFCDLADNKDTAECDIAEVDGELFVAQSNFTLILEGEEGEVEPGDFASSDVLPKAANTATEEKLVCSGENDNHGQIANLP
# [9] = target: T4, GFP-ELYS(1018-1642) S1314A (human (HeLa cDNA)) (UniProt Q8WYP5); assay: as above
# T4 sequence: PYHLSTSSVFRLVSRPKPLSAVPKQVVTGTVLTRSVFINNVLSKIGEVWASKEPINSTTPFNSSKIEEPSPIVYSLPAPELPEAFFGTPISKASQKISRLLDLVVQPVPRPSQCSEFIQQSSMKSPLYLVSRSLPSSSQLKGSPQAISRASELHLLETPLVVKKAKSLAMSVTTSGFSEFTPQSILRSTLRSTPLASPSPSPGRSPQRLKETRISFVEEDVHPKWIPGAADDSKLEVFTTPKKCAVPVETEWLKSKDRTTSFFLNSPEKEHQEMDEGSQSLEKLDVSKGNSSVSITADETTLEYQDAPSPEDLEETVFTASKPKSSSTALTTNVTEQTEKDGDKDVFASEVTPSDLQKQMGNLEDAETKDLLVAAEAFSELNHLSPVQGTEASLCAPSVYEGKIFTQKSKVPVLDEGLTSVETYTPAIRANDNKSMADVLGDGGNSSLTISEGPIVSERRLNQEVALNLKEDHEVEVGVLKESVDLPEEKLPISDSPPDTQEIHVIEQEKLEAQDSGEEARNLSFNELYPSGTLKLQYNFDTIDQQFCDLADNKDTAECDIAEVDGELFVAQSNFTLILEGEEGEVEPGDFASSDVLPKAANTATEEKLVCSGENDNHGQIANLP
# [10] = target: T5, GFP-ELYS(1018-1642), wild type (human (HeLa cDNA)) (UniProt Q8WYP5); assay: as above
# T5 sequence: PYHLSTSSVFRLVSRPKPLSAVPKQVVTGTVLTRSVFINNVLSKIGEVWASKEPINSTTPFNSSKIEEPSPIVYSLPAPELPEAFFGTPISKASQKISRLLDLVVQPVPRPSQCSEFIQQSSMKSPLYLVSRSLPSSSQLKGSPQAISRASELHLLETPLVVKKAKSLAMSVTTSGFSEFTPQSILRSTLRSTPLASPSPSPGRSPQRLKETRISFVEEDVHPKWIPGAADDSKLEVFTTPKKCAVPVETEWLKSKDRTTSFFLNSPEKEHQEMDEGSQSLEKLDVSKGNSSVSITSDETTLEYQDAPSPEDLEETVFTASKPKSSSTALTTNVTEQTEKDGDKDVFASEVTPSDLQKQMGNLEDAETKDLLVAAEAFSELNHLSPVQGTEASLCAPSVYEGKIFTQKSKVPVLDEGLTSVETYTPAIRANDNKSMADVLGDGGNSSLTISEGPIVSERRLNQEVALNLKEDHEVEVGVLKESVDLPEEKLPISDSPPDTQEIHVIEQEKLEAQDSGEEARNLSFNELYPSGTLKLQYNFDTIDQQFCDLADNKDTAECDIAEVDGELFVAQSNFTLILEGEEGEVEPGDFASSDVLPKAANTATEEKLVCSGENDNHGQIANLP
# [11] = target: HA-VAPB (wild type) (UniProt O95292); assay: proximity ligation; Duolink PLA in fixed HeLa Flp-In T-REx cells expressing HA-VAPB or HA-VAPB-KD/MD, anaphase cells, signals around chromatin; anti-HA and antibody against the partner
# [12] = target: HA-VAPB-K87D/M89D (UniProt O95292); assay: as above
# [13] = target: GST-VAPB-MSP (wild-type MSP-domain of VAPB fused to a GST-tag) (UniProt O95292); assay: pull-down; GST proteins (200 pmol) on GST-Selector beads, 3 h with lysate of asynchronous HeLa cells; Western blot; only the target purified; remark: listed apart in the source
# [14] = target: HA-VAPB (wild type) (UniProt O95292); assay: proximity ligation; Duolink PLA in fixed HeLa Flp-In T-REx cells expressing HA-VAPB or HA-VAPB-KD/MD, interphase cells, total cellular signals; anti-HA and anti-OSBPL9
molecule,measurement,setting,value
"ELYS (embryonic large molecule derived from yolk sac), endogenous, HeLa (from UniProt Q8WYP5 1-2266)",binding,[1],no binding
same,binding,[2],binds
same,binding,[3],no binding
same,binding,[4],binds weakly
same,binding,[5],no binding
"ELYS, endogenous, HEK293T (from UniProt Q8WYP5 1-2266)",binding,[2],binds
GST-VAPB-MSP (wild-type MSP-domain of VAPB fused to a GST-tag) (from UniProt O95292 7-124) (domain or fragment),binding,[6],binds
same,binding,[7],binds
"VAPB (Vesicle-Associated-membrane Protein-associated protein B), endogenous (from UniProt O95292 1-243)",binding,[8],binds
same,binding,[9],binds
same,binding,[10],binds
"lamin B receptor (LBR), endogenous (from UniProt Q14739 1-615)",binding,[11],binds
same,binding,[12],binds
B1,binding,[13],binds
B2,binding,[13],binds
same,binding,[14],binds
